Assay results published in ChEMBL document CHEMBL4888484, “Replenishing the malaria drug discovery pipeline: Screening and hit evaluation of the MMV Hit Generation Library 1 (HGL1) against asexual blood stage Plasmodium falciparum ,using a nano luciferase reporter read-out” (2022).
The whole screen tested about 150,000 compounds, of which about 540 (0.36%) showed an effect of 50% or more. The list shows a part of the results.

What follows are compounds tested on Plasmodium falciparum (assay: Primary screen in NF54 nanoGlo assay, in single point, at 2uM, 72h; a lower Z score goes with more inhibition). Conditions: timepoint 72 hour.
Assay type: functional, Erythrocyte

Structure (SMILES) | % Inhibition | Z score
CCCC(CCC)NC(=O)c1cncn1-c1cccc(-c2ccccc2C(F)(F)F)c1 | -5% | 0.68
CC(C)[C@@H]1N(C(=O)COc2ccc(CO)cc2)CC12CCC2 | -4% | 0.7
CN1CCN(CCc2nc(Cc3c(Cl)cccc3Cl)no2)CC1 | 28% | -3.14
O=C(c1ccoc1)N1CCc2oncc2C1 | -12% | 1.94
Cc1ccc(CNCc2cccc(C3CC3)c2)c(=O)n1C | -15% | 2.34
O=C1CCCN1[C@H]1CCN(S(=O)(=O)CC2CCC2)C1 | 4% | -0.3
O=c1[nH]c2nc(N3CCN(c4cccc(Cl)c4)CC3)ncc2c(=O)n1C1CCCC1 | -5% | 0.53
CC(C)OCC[C@H](O)CNc1cnn(Cc2nnc3n2CCCC3)c1 | -1% | 0.12
Cc1ccccc1OCC(=O)NCc1c(C)ncc2c1CCNC2 | -15% | 1.87
CN(C[C@H]1COc2ccccc2O1)C(=O)c1cnn[nH]1 | -2% | 0.3
CCCn1ncc(-c2cc(-c3cc(O)ccc3OC)c(C#N)c(N)n2)c1C | -6% | 0.87
Cc1cc(C(=O)N(C)C2(C#N)CCC2)c(C)n1-c1ccc2c(c1)OCCO2 | -8% | 0.8
CC1=C(C(=O)Nc2ccccc2)[C@H](c2ccc(Cl)cc2)N=C(Nc2nc3ccccc3s2)N1 | 33% | -3.7
COc1ccc(S(=O)(=O)CCNC(=O)c2n[nH]c3c2CCC3)cc1 | -15% | 2.29
CCCn1cnc2ccc(-c3noc(CNS(=O)(=O)c4ccccc4)n3)cc21 | -27% | 4.62
CN(C)c1cnc(C(=O)NCc2noc3c2CCCC3)cn1 | 0% | -0.05
CC(C)(C)OC(=O)N1CC(c2ncc(Br)cn2)C1 | -15% | 1.88
Cn1c(C(F)(F)F)nn(C2CCN(C(=O)c3cncc(F)c3)CC2)c1=O | -10% | 1.1
O=C(Nc1nccs1)N1CCN(Cc2cn3cc(Cl)ccc3n2)CC1 | 7% | -1.02
COc1ccc(F)cc1C(NC(=O)c1[nH]nc(C)c1Cl)[C@H]1C[C@@H](O)C1 (stereo not given in full) | 1% | -0.22
CCc1ocnc1C(=O)N1CCC[C@H](c2[nH]ncc2-c2ccc(C)cc2)C1 | -10% | 1.18
O=C(CCc1ccc(Cl)c(C(F)(F)F)c1)NCc1cccnc1-c1ccco1 | -13% | 2.36
Cc1nc2ccc(NC(=O)c3cncc(Br)c3)cc2s1 | -23% | 4.36
CCc1ncc(NC(=O)N2CCCN(C)CC2)cn1 | -13% | 2.11
Cc1ccc(Cn2cc(-c3ccncc3)cc2C(=O)N2CCN(CC(C)C)CC2)cc1 | 8% | -0.89
CCCc1cc(C(=O)NCCc2c[nH]cn2)no1 | -2% | 0.44
Cc1noc(C)c1CC(=O)N[C@H]1CCc2ccccc21 | -10% | 1.16
Cn1c(Cl)cnc1CN1CCc2ccccc21 | 4% | -0.52

Structure (SMILES) | % Inhibition | Z score
c1ccc(-c2nnc(-c3cccnc3NCCc3cccs3)o2)cc1 | -13% | 1.23
Cc1cccc2nc(CCNC(=O)N[C@H]3CC(=O)N(C)C3)cn12 | -2% | 0.23
O=C(c1ccc2nsnc2c1)N1CCN(c2ccc(-c3ccco3)nn2)CC1 | -6% | 0.95
CC(c1nnnn1C1CCCCC1)N1CCOC(c2cccc(O)c2)C1 (stereo not given) | 7% | -1.16
O=C(c1ccc2c(c1)OCCCO2)N1CCN(S(=O)(=O)c2ccc(Br)cc2)CC1 | -14% | 1.63
O=C(CN1C(=O)CCc2cc(Br)ccc21)NCc1cccnc1 | -13% | 1.74
CC1CC(C)CN(C2CCN(C(=O)c3ccc4c(=O)n5c(nc4c3)CCCCCC5)CC2)C1 (stereo not given) | -3% | 0.63
O=C(CCc1ccccc1)N1CC[C@H](CCOc2ccccc2F)C1 | -12% | 2.33
CCCc1[nH]nc(-c2cccc(F)c2)c1NC(=O)Cc1ccccc1 | -7% | 1.15
CC[C@@](C)(COc1ncccc1Cl)NC(=O)c1cnn(C)c1N | 9% | -0.94
Cc1cccc(CNC(=O)c2c(C)noc2-c2ccco2)c1 | 0% | -0.03
COCc1nc(Cc2cc(OC)ccc2OC)n(-c2ccccc2C(=O)O)n1 | -3% | 0.37
O=C(Cn1cnc2ccccc21)N1C2CCC1CC(n1ccnn1)C2 (stereo not given) | 3% | -0.49
CC(C)C(=O)N1CCCCCCN(C)C(=O)[C@@H]2CCC[C@@H]21 | -9% | 1.1
CCc1cccc(S(=O)(=O)N2C3CCC2CC(=O)C3)c1 | -5% | 0.44
COC[C@H](C)C1CCN(C(=O)C(=O)c2ccco2)CC1 | -13% | 1.23
FC(F)n1ccnc1CNc1cccc2c1OCCC2 | -6% | 0.67
COC(=O)/C(=N/Nc1ccccc1C)N1CCCc2ccccc21 | 2% | -0.24
CCN1CCCC[C@@H]1CNC(=O)c1cncnc1 | 0% | -0.07
CCC[C@@H](CNc1nc(C)ccc1C(N)=O)N(C)C | -3% | 0.53
COC(=O)CCNC(=O)c1cn2c(n1)C[C@@H](C)CC2 | -1% | 0.08
Cc1cc(C)nc(N2CCC3(CC2)OCCO3)n1 | -4% | 0.55
C[C@H]1CNC(=O)CCN1Cc1c[nH]nc1-c1ccc(F)cc1 | 6% | -0.8
O=S(=O)(c1ccc(Cl)cc1)C1CNC1 | 4% | -0.5
CCc1ccc([C@@H]2CN(C(=O)Nc3cccc(N4CCCC4=O)c3)CCO2)cc1 | -4% | 0.49
Cn1cc(NC(=O)[C@]2(C)Oc3ccc(Cl)cc3NC2=O)cn1 | 26% | -3.56
O=C(NC[C@H]1CC[C@H](CO)CC1)c1cncc(O)n1 | -6% | 1.15
